Data: PubChem BioAssay AID1508642 (National Center for Advancing Translational Sciences (NCATS), 2021)
Out of some 43,000 compounds screened, about 200 (0.47%) were called active. About 12% were inconclusive and are not listed. Calls follow the shape of the dose curve; as a rule, active = well fitted cell-killing curve with a large enough effect; inconclusive = small, poorly fitted or top-dose-only effect, or effect the other way; inactive = flat fitted curve, though single readings scatter. This is one part of the list.

Experiment: Cell viability qHTS assay in S16 Pmp22-F2sN cells; also: nearly all actives have a fitted effect of over 65% in size
Settings: S16 Pmp22-F2sN Schwann cells viability, CellTiter-Glo, 24 h; series mostly up to 57.5 µM; activity change, negative = cytotoxicity: at the top concentration
Procedure, shortened: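 Viability was measured by CellTiter-Glo luminescence (15 min, room temperature). This followed 24 h at 37 °C of compound exposure (23 nL pin transfer) in S16 Pmp22-F2sN Schwann cells, 500-1,000 per well.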
% is scaled to controls: 0 for no effect and ±100 for the full control effect.

Compound | activity change, negative = cytotoxicity
CCCCn1c(=N)c(S(=O)(=O)c2ccccc2)cc2c(=O)n3cccc(C)c3nc21 | inactive: 0.519%
Cc1nc2nc(SCC(=O)Nc3cccc(Cl)c3)nn2c(C)c1Cc1ccccc1 | inactive: -5.99%
Cc1ccccc1NC(=O)N1CCc2cc(S(=O)(=O)N3CCC(C)CC3)ccc21 | inactive: 0.856%
COc1ccc(-c2nc(C)c(CCNC(=O)c3ccc(F)c(F)c3)s2)cc1 | inactive: 10.8%
CCCCn1cc(S(=O)(=O)c2ccc(OCC)cc2)c(=O)c2cc(OC)c(OC)cc21 | inactive: -5.78%
CCc1ccc(-n2nc3ccc(NC(=O)c4cc(Cl)c(OC)c(Cl)c4)cc3n2)cc1 | inactive: -1.47%
CCOc1ccc(CNC(=O)Cn2nc(C)n3cccc3c2=O)cc1 | inactive: -0.604%
Cc1ccc(NC(=O)CN(CCc2ccccc2)S(=O)(=O)c2ccccc2)c(C)c1 | inactive: 0.848%
COC(=O)c1cccc(NC(=O)N(C)CCc2c(C)nn(C)c2C)c1 | inactive: 3.61%
Cc1ccc(CNC(=O)c2cccc(N3CCCS3(=O)=O)c2)cc1 | inactive: 9.5%
CN(C(=O)CSc1nc2ccc(NC(=O)c3ccccc3F)cc2s1)c1ccccc1 | inactive: -6.68%
COCCN1Cc2cccc(C(=O)Nc3ccc(C)c(F)c3)c2C1=O | inactive: -6.83%
Cc1cc(C)cc(NC(=O)C(=O)NCC(c2ccc3c(c2)OCO3)N2CCOCC2)c1 (stereo unspecified) | inactive: 6.72%
Cc1ccc(CNC(=O)Cn2c(=O)n(Cc3ccccc3)c(=O)c3c2c2cc(C)ccc2n3C)cc1 | inactive: -1.05%
COc1cc(N2C(=O)CSC23C(=O)N(C)c2ccccc23)cc(OC)c1OC (stereo unspecified) | inactive: 22.7%
CCOc1ccc(N2CC(C)Cn3c2nc2c3c(=O)n(CC(=O)O)c(=O)n2C)cc1 (stereo unspecified) | inactive: 18.3%
CCNS(=O)(=O)c1cc(-c2nnc(Nc3cccc(C(F)(F)F)c3)c3ccccc23)ccc1C | inactive: 9.28%
CCOc1cc(C2C(C(=O)Nc3ccccc3)=C(C)Nc3ncnn32)cc(Br)c1O (stereo unspecified) | inactive: 15%
Cc1cc2c(cc1S(=O)(=O)N(CCO)Cc1ccccc1)OCC(=O)N2 | inactive: 1.07%
Cc1ccc(C)c(N2CCN(C(=O)C3CCN(S(=O)(=O)c4ccc5[nH]c(=O)oc5c4)CC3)CC2)c1 | inactive: 0.815%
CCc1ccc2nc(N3CCN(C(=O)c4ccccc4)CC3)sc2c1 | inactive: -28.2%

Compound | activity change, negative = cytotoxicity
CCc1cccc(CC)c1N(COC)C(=O)Cn1c(CC)nc2ccccc21 | inactive: -2.1%
Cc1ccc(C)c(NC(=O)CCS(=O)(=O)c2cccc3nsnc23)c1 | inactive: 10.6%
Cc1ccc(NC(=O)Cn2c(CCC(=O)O)ccc2-c2cccs2)cc1Cl | inactive: 0.914%
Oc1c(C(c2ccccc2F)N2CCC3(CC2)OCCO3)sc2nc(-c3ccco3)nn12 (stereo unspecified) | inactive: 1.03%
CCCCN(C(=O)Nc1ccc(Cl)cc1)C1CCN(C(C)=O)CC1 | inactive: -7.36%
CC(=O)c1cccc(NC(=O)C2=CC(c3ccc(F)cc3)=NS(=O)(=O)N2C)c1 | inactive: 0.566%
Cc1cccc(N2CCN(C(=O)CCCn3c(=O)[nH]c4ccsc4c3=O)CC2)c1C | inactive: 2.16%
CCCCCCc1c(C)c2c(cc(C)c3c(C)c(C)oc32)oc1=O | inactive: -1.02%
O=C1CC(c2nc3ccccc3n2CCC2CCCCC2)CN1c1ccccc1Cl (stereo unspecified) | inactive: 23.8%
Cc1ccc(NC(=O)Cn2c(=O)n(CCCC(=O)NCc3ccc4c(c3)OCO4)c(=O)c3ccccc32)cc1 | inactive: 10.8%
Cc1ccc2onc(CC(=O)N3CCN(c4ccc(Cl)cc4)CC3)c2c1 | inactive: 4.25%
CCN(c1ccc(Cl)cc1)S(=O)(=O)c1nnc(NC(=O)c2ccco2)s1 | inactive: -0.0378%
COc1ccc(OC)c(CNC(=O)c2ccc(Sc3ccc(Cl)cc3)c(NC(C)=O)c2)c1 | inactive: 8.92%
CCOC(=O)c1cc2c(=O)n3ccccc3nc2n(CCCOC)c1=NC(=O)c1c(-c2ccccc2Cl)noc1C | inactive: -15.2%
Cc1ccc(-n2ncc(C(=O)N3CCN(C4CCCCC4)CC3)c2C2CCN(C(=O)OC(C)(C)C)CC2)cc1C | inactive: -27.1%
CN(C(=O)Cn1c(=O)n(CCC(=O)NCc2ccc3c(c2)OCO3)c(=O)c2sccc21)c1ccccc1 | inactive: -1.39%
Cc1ccc(NC(=O)c2sc3nc4n(c(=O)c3c2C)CCCCC4)c(Br)c1 | inactive: 0.897%
Cc1nc2nc(C)c(NS(=O)(=O)c3ccc(F)cc3)c(=O)n2[nH]1 | inactive: 6.1%
O=C(Cn1cnc(S(=O)(=O)N2CCCC2)c1)Nc1cccc(F)c1 | inactive: 2.07%
CCN(CC)CCCNC(=O)CSc1nc2nc(C)c(Cc3ccccc3C)c(C)n2n1 | inactive: 5.48%
COc1ccc(NC(=O)Cn2nc(SC)c(S(=O)(=O)c3ccc(C)cc3)c2N)cc1OC | inactive: 24.1%

Compound | activity change, negative = cytotoxicity
Fc1ccccc1N1CCN(c2ncnc3c2nc2n3CCCCC2)CC1 | inactive: 12.6%
CCC(=O)N1CCc2cc(Br)cc(S(=O)(=O)CCC(=O)N(C)c3cccc(C)c3)c21 | inactive: 6.26%
CCOc1ccc(NC(=O)CC2C(=O)N(c3ccc(F)cc3)C(=O)N2CCc2sccc2C)cc1 (stereo unspecified) | inactive: -22%
COc1ccc(CNc2nc3c(-c4ccc(C)cc4)nnn3c3ccccc23)cc1 | inactive: 7.43%
COc1ccc(-n2nc(C(=O)NCCCOC(C)C)c3c4ccccc4n(C)c3c2=O)cc1 | inactive: -13.8%
O=C(O)c1ccc2oc(=O)n(Cc3ccccc3)c2c1 | inactive: 4.89%
O=C(Nc1c(Cl)cccc1Cl)c1cccc2c1C(=O)N(C1CCCCC1)C2 | inactive: 4.98%
CC(C)Oc1ccc(CNC(=O)c2ccc(CS(=O)Cc3ccccc3Cl)o2)cc1 (stereo unspecified) | inactive: -15.4%
COc1ccc(OC)c(NC(=O)c2oc3c(c2C)-c2nn(Cc4ccc(Cl)cc4)cc2CC3)c1 | inactive: -2.66%
Cc1cn2c(=O)cc(COC(=O)c3cccc(NC(=O)COc4ccccc4)c3)nc2s1 | inactive: -8.18%
Cc1cc(C)n2nc(-c3ccc(Cl)cc3)nc2n1 | inactive: 11.6%
Cc1ccc2c(CC(=O)N3CCN(c4cccc(Cl)c4)CC3)coc2c1C | inactive: 6.65%
CC(=O)Nc1ccc(NC(=O)Cn2cc3c(n2)CCCCC3)cc1 | inactive: 0.436%
Cc1cccc(OCCSc2nc3ccc(NC(=O)COc4ccccc4C)cc3s2)c1 | inactive: 3.26%
CCC(=O)N1CCc2cc(CNC(=O)Cc3ccc(OC)c(OC)c3)ccc21 | inactive: 33.2%
Cc1ccccc1Cn1cnc2c(oc3ccccc32)c1=O | inactive: -18.4%
COc1cc(C(=O)N2CCc3c([nH]c4ccccc34)C2c2ccc(F)cc2)cc(OC)c1OC (stereo unspecified) | inactive: -25.3%
CC1=Nc2cc(C(=O)NC3CCC(C)CC3)ccc2Sc2c(C)ccc(C)c21 (stereo unspecified) | inactive: 3.86%
COc1ccc(-c2cn3nc(N4CCC(C(=O)NCc5cccc(Cl)c5)CC4)sc3n2)cc1 | inactive: 12.3%
